The whole screen tested about 300,000 compounds, of which about 22,000 (7.3%) were called active. Inconclusive results, whose numbers are uncertain, are shown with a selection of clear calls. Cut-off read from the data, not from the text of the source: active = activity score below about -60%; inconclusive = mostly about -28% to -61%; inactive = positive scores.
Experiment: Activators via SNCA 5'UTR binding, MLPCN (AID 1814)
Settings: alpha-synuclein 5'UTR reporter, activators screen; hits give low values; tested at 7.5 µM

Activity score, inconclusive:
COc1ccc(C(=O)Nc2nc3ccccc3[nH]2)cc1S(=O)(=O)N1CCCC1 -43.3%
O=C(NCc1ccc(F)cc1)c1cccc(NC2=NC3CS(=O)(=O)CC3S2)c1 (stereo unspecified) -40.9%
CNC(=S)N/N=C(\C)c1ccc(N2CCOCC2)cc1 -55.2%
CCOCCCNC(=O)c1cc2c(=O)n3ccccc3nc2s1 -46.2%
Cc1ccccc1-n1ncc(C(C)NC(=O)c2ccccc2)c1C (stereo unspecified) -44.1%
C[C@H]1CCC[C@@]2(O[C@H](CCO)C[C@H](O)[C@H]2O)O1 -33.7%
COc1cc(NC(=O)CCc2ccccc2)c(C(=O)O)cc1OC -33.4%
C=CCN(c1ccc(C(=O)NCCSc2ccccc2)cc1)S(C)(=O)=O -57.8%
CC(=O)Nc1nnc(COc2ccccc2)s1 -53.7%
Cc1[nH]c2ccccc2c1N=Nc1ccc(F)cc1 -61.1%
COc1cccc2cc(C(=O)NCc3ccccc3Br)c(=O)oc12 -60.5%
CCCC(=O)Nc1sc2c(c1C#N)CCCC2 -43.1%
O=C(O)C1CCCCC1C(=O)Nc1ccc2c(c1)OCO2 (stereo unspecified) -53.3%
c1ccc2c(c1)[nH]c1c(N3CCOCC3)ncnc12 -34.9%
Cc1ccccc1CSc1nnc(-c2cccnc2)n1N -53%
COc1ccccc1C(=O)Nc1cc2cc(Br)ccc2oc1=O -47.6%
COc1cccc(/C=N/NC(=S)Nc2cccnc2)c1 -60%
Cc1noc(C)c1COc1cccc(C(=O)Nc2ccc3c(c2)OCO3)c1 -60.6%
c1ccc(OCCn2c(-c3ccco3)nc3ccccc32)cc1 -50.6%
CCOc1ccc(NC(=O)Nc2ccc3nsnc3c2)cc1 -56.3%
COc1cc(NC(=O)c2ccc3c(c2)OCCO3)ccc1NC(=O)c1ccco1 -51.9%
COc1cccc(NC(=S)/C(=C(\[O-])c2ccc(C)c([N+](=O)[O-])c2)[n+]2ccccc2)c1 -60%
Cc1cc(C(=O)CN2C(=O)NC3(CCCc4sccc43)C2=O)c(C)n1-c1ccccc1 (stereo unspecified) -54.1%
Cc1ccc(-n2c(=O)cc(N3CCC(C)CC3)[nH]c2=O)cc1 -35.9%
O=C1CN=C(Nc2cccc(C(F)(F)F)c2)N1C1CCCC1 -60.3%
CCc1nn(C(CC)C(=O)NCc2cccs2)c(=O)c2cc3occc3n12 (stereo unspecified) -26.9%
CCCNC(=O)c1nnsc1S(=O)c1ccc(Cl)cc1 (stereo unspecified) -53.9%
COc1ccccc1NC(=S)NNC(=O)c1nn(C)c(C)c1Cl -47.7%
O=C(NCC1CCCCC1)C1(CC2CC(c3ccc(Cl)cc3)=NO2)CCNCC1 (stereo unspecified) -44.3%

Activity score, active:
S=C(Nc1ccccc1)Nc1cccc(Cl)c1Cl -67.1%
Cc1ccc(COc2cccc(/C=N/NC(=O)c3nnn(-c4nonc4N)c3C)c2)cc1 -152%
Cc1ccc(OCc2ccc(Br)cc2)c([N+](=O)[O-])n1 -141%
O=C(Nc1nccs1)c1ccc(-c2ccc(F)cc2)o1 -260%
Cc1cc(OCc2cc(C(=O)N(C)CC3CCOCC3)no2)cc(C)c1Cl -71.6%
COc1ccc(-c2nnc(-c3ccc(C)cc3)o2)cc1 -103%
COc1nc(NCc2ccco2)nc(NC2CCCCC2)n1 -94.2%
CC(=O)c1ccc(NC(=O)Oc2ccccc2)cc1 -62.5%
S=C(Nc1ccccn1)Nc1ccccc1Cl -83%
Clc1ccc(/C=N/Nc2ccccn2)cc1 -163%
Fc1ccc(C[n+]2csc3ccccc32)cc1 -109%

Activity score, inactive:
O=C(Nc1ccc(-c2nc3ccccc3[nH]2)cc1)C1CCCO1 (stereo unspecified) 76.7%
C/C(N)=C(/C#N)C(=O)CSc1nnc(-c2ccc3c(c2)OCO3)o1 59.7%
Nc1nc(Cl)nc2c1ncn2[C@H]1C[C@H](O)[C@@H](CO)O1 83.6%
COc1cccc(C(=O)Nc2nc3ccccc3[nH]2)c1 62.6%
Cc1nn(-c2nc3ccccc3[nH]2)c(=O)c2ccccc12 115%
Cc1ccccc1OCC(O)Cn1c(=N)n(Cc2ccccc2)c2ccccc21 (stereo unspecified) 113%
Cc1cccc(N(C)S(=O)(=O)c2ccc(-c3cc(C)no3)s2)c1 87.9%
CC(C)(C)c1cc(C(=O)N/N=C/c2ccc([N+](=O)[O-])s2)n[nH]1 64%
O=C(NCc1ccccc1)C(=O)Nc1cccc(C(=O)O)c1 74.1%
COc1cccc2c1C(=O)c1c(O)c3c(c(O)c1C2=O)C[C@@](O)(C(=O)CO)C[C@@H]3O[C@H]1C[C@H](N)[C@H](O)[C@H](C)O1 109%
C/C(=N\NC(=O)c1ccccc1Cl)c1ccccn1 81.9%
Cc1cc(C)c(NC(=O)CCN2CCN(Cc3ccccc3)CC2)c(C)c1 98.3%
COc1nc(Nc2nc3ccccc3c(=O)[nH]2)nc2ccc(C)cc12 89.9%
Cc1ccc(C(=O)Nc2ccc3ncccc3c2)cc1 84.1%
N=C(N)c1ccc(OCCCCCOc2ccc(C(=N)N)cc2)cc1 67%
NC1=NN=C(c2ccc3c(c2)OCCO3)CS1 56.8%
Cc1[nH]nc2nc(SCC(=O)NC3CCCCC3)n(-c3ccc(Br)cc3)c(=N)c12 58.9%
CCOc1cc(CNCCc2ccc(S(N)(=O)=O)cc2)ccc1OCc1ccc(Cl)cc1 97.5%
CCc1nnc(NC(=O)c2cccc(C(=O)Nc3nnc(CC)s3)n2)s1 66%
Cc1cc(Cl)c2oc(C(=O)N3CCN(c4ccncc4)CC3)c(C)c2c1 90.3%
Cn1c(-c2ccccc2)cnc1SCC(=O)N1CCCCC1 82.8%
